For 14 molecules, binding signal results are on record in paper PMC12136788.

Sequences and labels used below:
B1: chr8:54147534:54147638:+|CDS|ENSG00000137547|unk|total|mutant (ssRNA)
RNA: GGGAGUUCUACAGUCCGACGAUCAAGUAUGGUUAUAUCUUACCUGAUAUCACUAAAGAUGAACUCUUCAAAAUGCUCUGUACCCGGAAGGAUCCAAGGCAGAUUUUCUUUGGUCUUGCUCCAGGAUGGGUGGUGAAUAUGGCCCAACAGAGGAUUGAGCAUCA
B2: ENSG00000136451:be:win_4201|3pUTR|ENSG00000136451|bound_else_gene|NA|bound_elsewhere_windowed (ssRNA)
RNA: GGGAGUUCUACAGUCCGACGAUCCCCUUCUGGUUGUAACCUGGUUGAGAGCUUCCCCUUUAUCAGAUUGGCAGCUAAACAGUUGUAUUAGAUAAUCCUUAAAUCUGACAUCCAGCCUGUUACGCUCUAGGGCUCGCUGCUUGGCAACAGAGGAUUGAGCAUCA
B3: chrX:53532849:53532950:-|3pUTR|ENSG00000086758|unk|FALSE|unique (ssRNA)
RNA: GGGAGUUCUACAGUCCGACGAUCGUGCUCCUCAGAUUCUGUGUUCAGAAGGAUUUGCUGCAUUGAGACUUGAAACCUUUGGAUAGGGGAAAAAAUUAUAUAUAUAUAUAUUUUUUUGUUCUGUUUGCAUUUCUUAAUUUGUGCCAACAGAGGAUUGAGCAUCA
B4: chr1:202941098:202941199:-|3pUTR|ENSG00000159346|msi1_unk|total|mutant (ssRNA)
RNA: GGGAGUUCUACAGUCCGACGAUCCCUCCCUUACCCCCAUCCUUAACUUUGUAUCCUGGCUUAUAACAGGCCAUCCAUUUUUGCCGCACACUUUUCAAAAACAAUUAUAUACCCUGGUCCCAUCUUUCCCGGGCCUGGAUCUGCCAACAGAGGAUUGAGCAUCA
B5: chr2:196807445:196807622:-|CDS|ENSG00000187944|control|control|control (ssRNA)
RNA: GGGAGUUCUACAGUCCGACGAUCAAGGGCAGAGGUCUUGAUCUUGGAACAUUUCCAAAUCCUUUCCCCACGAAUGAAAAUCCUAGACCUCUCUCUUUCCAGUCAGAACUUACUGCUUCUGCAUCUGCAGAUUAUGAAGAGCAGCAACAGAGGAUUGAGCAUCA
B6: chr4:121668310:121668420:-|3pUTR|ENSG00000164111|msi1_unk|FALSE|overlapping (ssRNA)
RNA: GGGAGUUCUACAGUCCGACGAUCCCUUCAGCACCUUUAGCUGCAUUUGUAUGCCAGUGCUUAACACAUUGCCUUAUUCAUACUAGCAUGCUCAUGACCAACACAUACACGUCAUAGAAGAAAAUAGUGGUGCUUCUUUCUGAUCAACAGAGGAUUGAGCAUCA
B7: chr16:74621626:74621727:-|3pUTR|ENSG00000168411|msi1|total|mutant (ssRNA)
RNA: GGGAGUUCUACAGUCCGACGAUCCAUCUCAAAAAAAACAAACAAACAAAAAAAAACCCUGAUGCCAUUCCCAGUCCCCGUUGCCGGACAUCACAUUUAUAAAUCCAGGCUUCCGUCUUCUGGGCUCCACCAGUCUCUGCCCCACAACAGAGGAUUGAGCAUCA
B8: chr9:15468732:15468834:-|CDS|ENSG00000164985|unk|FALSE|unique (ssRNA)
RNA: GGGAGUUCUACAGUCCGACGAUCAAUUAGGAAAACAAUUAUGAUGAAUGUAUAUUGUUUUCUCAGAUACGGCGAUUCAAAGUUAGUCAGGUAAUCAUGGAAAAGUCUACAAUGUUGUAUAACAAGUUUAAGAACAUGUUCUUGCAACAGAGGAUUGAGCAUCA
B9: chr5:37333503:37333606:-|CDS|ENSG00000113569|unk|total|mutant (ssRNA)
RNA: GGGAGUUCUACAGUCCGACGAUCGAUGACAGCUGGUGUUGAUGGUCAUUCCUGGGCUCUUUCUGCGACCGAUGAAUUGAAAGCCGAUAAAAUAAUUACACCUUUAAACAAGGAUCAUAUUCCAAUAACUGAUUCACCAGUUGUCAACAGAGGAUUGAGCAUCA
B10: chr12:133218311:133218884:-|three_prime_utr|ENSG00000227059|control|control|control (ssRNA)
RNA: GGGAGUUCUACAGUCCGACGAUCAGAGUUCCCCUGGGGGCUCUGCUGAAAAGCAGAGAUUCUUUCCCACUGCCAUGUUUGAAUAGUUUGGUUAGCAAUUCCCUGUAGUAGAGAAAGCAUUUGAGAAAUGUUCGUGAGAUCAGACAACAGAGGAUUGAGCAUCA
B11: chr7:94537565:94537673:+|CDS|ENSG00000127995|unk|FALSE|unique (ssRNA)
RNA: GGGAGUUCUACAGUCCGACGAUCGAAGCCUGUAGAUGGGUCCUGUUGUCAACCUCGGCCUCCUGUUACUCUCAUACAGAAGCUAGCUGCUUGUUUUUUCACUUUAUCUAUUAUCGGAUAUUUAAUUUUUUACAUAAUUCAUCGCAACAGAGGAUUGAGCAUCA
B12: chr5:157463210:157463311:+|CDS|ENSG00000172548|unk|total|mutant (ssRNA)
RNA: GGGAGUUCUACAGUCCGACGAUCCAGGAAAGAAUCAGGCAGAACUAUGGCUUCUACAUCGGCCUGGGCCUGGCAUUCCUGUCCCGCUUCCUCAUCGGCAGCAGCGUCAUCCUCAAGAAGAAAGGCCUCUUGCGACUCGUGGCCCAACAGAGGAUUGAGCAUCA
B13: chr19:18306235:18307555:-|three_prime_utr|ENSG00000130520|control|control|control (ssRNA)
RNA: GGGAGUUCUACAGUCCGACGAUCCAGAAAGGAAGAGGCAGGCGCCAGGGGGAACCCCCUUCGUGUUUUGUGACCCUCCCUUUUAGGUGAAGCCCCUUUUUCUUGCUAAAACCGGCAAUUCUCCGGUUAGAAAUGUUACUUGGUCAACAGAGGAUUGAGCAUCA
B14: chr7:99546688:99548407:-|CDS|ENSG00000221909|control|control|control (ssRNA)
RNA: GGGAGUUCUACAGUCCGACGAUCCUUGACACGGUUAAAAACAAAGAAGAGAAAUAGGCUCAAUAGUGCACCAGAUAUGCGGGUAGCAUUAUCUUCAUGUGUUCCUGACUGGAAGGAACUUAUGAACAGACAAGCACACCCAUCCAACAGAGGAUUGAGCAUCA

The list shows a part of the results.

This assay deals with MSI1 full-length (mouse, UniProt Q61474 1-362). Kind of assay: nsRBNS (natural sequence RNA bind-n-seq); RBNS binding buffer (assumed for nsRBNS): 25 mM Tris pH 7.5, 150 mM KCl, 3 mM MgCl2, 0.01% Triton X-100, 500 ug/ml BSA, 20 U/ml SUPERase-In, 4 C; UNK is unkempt and MSI1 is Musashi-1; names of the RNAs are library labels; protein concentration not given here; high values mean tight binding.
UniProt Q61474, sequence (Q61474 whole entry): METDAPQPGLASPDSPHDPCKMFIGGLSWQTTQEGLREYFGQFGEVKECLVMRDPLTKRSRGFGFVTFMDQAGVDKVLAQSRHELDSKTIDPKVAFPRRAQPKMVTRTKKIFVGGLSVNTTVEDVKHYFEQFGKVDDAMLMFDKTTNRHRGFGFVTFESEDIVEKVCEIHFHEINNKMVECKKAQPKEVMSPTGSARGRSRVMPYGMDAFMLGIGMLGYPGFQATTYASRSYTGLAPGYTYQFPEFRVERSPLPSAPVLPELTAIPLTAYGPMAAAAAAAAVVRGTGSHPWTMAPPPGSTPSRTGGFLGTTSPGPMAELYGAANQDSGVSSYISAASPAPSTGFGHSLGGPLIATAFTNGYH
Take B1: the binding signal was found to be 0.269 enrichment R.
The molecule B2 yielded a binding signal of 0.869 enrichment R.
B3 returned a binding signal of 0.388 enrichment R.
Molecule B4 came in with a binding signal of 1.69 enrichment R.
Then B5, with 0.294 enrichment R.
Consider B6, for which the binding signal worked out at 1.44 enrichment R.
B7: the binding signal was 0.991 enrichment R.
In turn, B8 showed a binding signal of 0.966 enrichment R.
With B9, the binding signal came out at 0.359 enrichment R.
In turn, B10 showed a binding signal of 6.25 enrichment R.
Regarding B11, the binding signal turned out to be 2.88 enrichment R.
As for B12, the figure is 0.586 enrichment R; as for B13, 0.565 enrichment R.
B14: the binding signal stood at 0.439 enrichment R.
